What is called % Inhibition is the drop in the measured response relative to a control, in per cent.

Screen size: about 150,000 compounds; about 540 (0.36%) showed an effect of 50% or more. The list shows a part of the results.

For the experiment, the system named is Plasmodium falciparum. Put plainly: Primary screen in NF54 nanoGlo assay, in single point, at 2uM, 72h; a lower Z score goes with more inhibition. The conditions noted are these: timepoint 72 hour. In kind it is functional, Erythrocyte.
For `Cc1n[nH]cc1CNC1CCCC(C)C1C` (stereo not given), the “% Inhibition” value came out at 6% and the Z score is -0.71.

On to `O=C(c1ccccc1F)N(Cc1ccc(F)cc1)Cc1nc2cc(Cl)ccc2o1`, for which the “% Inhibition” value was -13% and the Z score is listed as 1.29.

For the compound `O=C(c1ccc(-c2noc(-c3ccccc3)n2)s1)N1CCN(C2CCCCC2)CC1`, the “% Inhibition” value is reported as -5% and the Z score was found to be 0.72.

Turning to `O=C1CCC2(c3ccccc3)CCCCC2N1` (stereo not given), the “% Inhibition” value is reported as -13% and the Z score was 2.57.

`CC(C)[C@H](CO)N(C)C(=O)c1cccc(-c2ccc(O)c(-c3ccno3)c2)c1`: the “% Inhibition” value is recorded as -13% and the Z score came out at 2.3.

Consider `O=C(c1ccc2c(c1)CCC2)N1CCCC1`, for which the “% Inhibition” value is recorded as -12% and the Z score came out at 1.46.

Regarding `Cc1cccn2c(Nc3ccccc3)c(-c3ccc(N4CCOCC4)cc3)nc12`, the “% Inhibition” value is -12% and the Z score was found to be 1.95.

For the compound `Cc1ccc(O)c(CN2CC[C@H](c3sccc3C)[C@@H](O)C2)n1`, the “% Inhibition” value is -10% and the Z score is recorded as 1.28.

As for `CN1CCN(CC2(C)CCN(S(=O)(=O)C[C@H]3CCCCO3)CC2)CC1`, the “% Inhibition” value is listed as -8% and the Z score is 1.61.

For the compound `O=S(=O)(C[C@H]1CCOC1)N1CCN(c2nc[nH]n2)CC1`, the “% Inhibition” value is recorded as -12% and the Z score came out at 1.51.

`Cc1cnc(C2CC2)n1[C@H]1CCCN(C(=O)c2cccc3[nH]ccc23)C1`: the “% Inhibition” value is reported as -15% and the Z score is reported as 1.87.

As to `CC1CN(S(=O)(=O)c2cccs2)C(C)CN1S(=O)(=O)c1cccs1` (stereo not given), the “% Inhibition” value amounted to 2% and the Z score is on record as -0.26.

Regarding `CC(C)(C)OC(=O)NC1CCC(C(=O)Nc2ccsc2)C1` (stereo not given), the “% Inhibition” value is listed as -8% and the Z score came to 1.2.

For the compound `Cc1ccc(NC(=O)OCC(F)(F)F)cc1C`, the “% Inhibition” value is reported as -6% and the Z score is 0.63.

For `COc1ccc(C(=O)NCCc2ccccc2OC)nn1`, the “% Inhibition” value is recorded as -6% and the Z score was found to be 0.72.

With `COc1ccc(NC(=O)c2cc(C3CC3)nc3ccccc23)c(OC)c1`, the “% Inhibition” value is listed as -4% and the Z score is 0.6.

As for `Cc1csc(CNC(=O)Nc2cccnc2)n1`, the “% Inhibition” value is -4% and the Z score stood at 0.72.

With `Cc1noc(NC(=O)COc2ccc(-c3ccccc3)cc2Cl)n1`, the “% Inhibition” value was -6% and the Z score is recorded as 1.16.

As to `CC(C)c1nc(CN2CCN(c3ncccn3)CC2)cs1`, the “% Inhibition” value worked out at 0% and the Z score came out at 0.05.

For `O=C(c1ccccc1)N1CCO[C@@H](CC2CCCCC2)C1`, the “% Inhibition” value is -7% and the Z score was 1.22.

As to `O=C1C[C@H](N2CCN(S(=O)(=O)c3cccs3)CC2)C(=O)N1CCc1ccccc1`, the “% Inhibition” value is listed as -30% and the Z score is 3.

On to `COCCn1ccnc1CN1CC(c2ccncc2)C1`, for which the “% Inhibition” value is -7% and the Z score is given as 1.29.

On to `CNc1nc(C)cc(C(=O)N(CC2CCC2)CC(F)(F)F)n1`, for which the “% Inhibition” value is listed as -2% and the Z score worked out at 0.28.

Consider `Cc1cc(CN(C)Cc2cn3c(C)cccc3n2)no1`, for which the “% Inhibition” value is recorded as -24% and the Z score came to 3.72.

Regarding `O=C(c1ccn(C(=O)NC2CCCCC2)n1)N1CCCCC1`, the “% Inhibition” value is listed as -17% and the Z score is recorded as 2.3.

For `CCCCc1cc(NCCc2c(C)n[nH]c2C)ncn1`, the “% Inhibition” value is reported as -3% and the Z score is recorded as 0.62.

With `Cc1nn(CC(=O)Nc2cccc(F)c2)c(=O)n1C`, the “% Inhibition” value is -5% and the Z score came to 0.62.

On to `O=C(COc1cccc(-c2nnco2)c1)NC(C1CC1)C1CC1`, for which the “% Inhibition” value came to 6% and the Z score is -0.72.

As to `COC(=O)N(C)CC(=O)N[C@@H](C)c1cccs1`, the “% Inhibition” value is -1% and the Z score is listed as 0.06.

In the case of `Cc1ccc(S(=O)(=O)NCCC2CCN(C(=O)NC3CCCCC3)CC2)cc1`, the “% Inhibition” value was found to be 7% and the Z score is reported as -1.17.

As for `CCOC1CC(O)C12CCN(c1nc(C)cc(C)n1)CC2` (stereo not given), the “% Inhibition” value is listed as -19% and the Z score was 1.62.

Turning to `Cc1noc([C@H](C)Nc2ccc3c(c2)OCO3)n1`, the “% Inhibition” value was -7% and the Z score was 1.32.

On to `COC(=O)CN1CCC(Nc2ncc(C)c(N(C)C)n2)CC1`, for which the “% Inhibition” value is listed as 2% and the Z score is on record as -0.37.

Turning to `CO[C@H]1C[C@@H](CNc2nc(-c3ccnc(C(F)(F)F)c3)cs2)C1`, the “% Inhibition” value was -11% and the Z score is reported as 1.47.

Turning to `O=C(NCc1cccc(C(F)(F)F)n1)c1ccnn1CC(F)(F)F`, the “% Inhibition” value is recorded as -4% and the Z score was 0.64.

Consider `Cn1c(=O)c2c(n(C)c1=O)n(Cc1ccccc1Cl)c(=O)n2Cc1ccc(Cl)cc1Cl`, for which the “% Inhibition” value is recorded as -7% and the Z score worked out at 0.93.

As for `O=C(c1ccccc1OC(F)F)N1CCN(Cc2ccc(Cl)s2)CC1`, the “% Inhibition” value was -21% and the Z score was found to be 1.85.

`C[C@H](NC(=O)CCc1nc2ccccc2c(=O)[nH]1)c1ccncc1`: the “% Inhibition” value is -15% and the Z score is 2.09.

On to `Cc1ccc(NC(=O)Cn2cnc3cc4c(cc32)OCCO4)c(C)c1`, for which the “% Inhibition” value is -15% and the Z score is 1.48.

As for `CCc1[nH]nc(-c2cccc(OC)c2)c1NC(=O)C1CCCC1`, the “% Inhibition” value was found to be 3% and the Z score is -0.51.

Turning to `O=C(N[C@H](C(=O)O)c1ccccc1)c1n[nH]c2ccccc12`, the “% Inhibition” value is on record as -5% and the Z score worked out at 0.64.

Take `CCN1CCN(C(=O)CCC2CCN(C(=O)c3ccc4c(c3)OCCO4)CC2)CC1`: the “% Inhibition” value is reported as -17% and the Z score amounted to 2.33.

Take `CCN1C[C@@H](NC(=O)c2cccc(-c3cc(C)nc4ccccc34)c2)CC1=O`: the “% Inhibition” value was found to be 2% and the Z score is -0.22.

In the case of `CCC(C)NC(=O)c1coc(CN(Cc2cccc(F)c2)C(C)c2ccccc2)n1` (stereo not given), the “% Inhibition” value is on record as -6% and the Z score amounted to 0.6.

In the case of `COCCn1nc(C(=O)NCCc2c(C)nn(C)c2C)c2c1CCOC2`, the “% Inhibition” value was -4% and the Z score came to 0.47.

As to `Cc1nc(C(C)C)sc1C(=O)N1CCS(=O)(=O)CC1`, the “% Inhibition” value is given as -4% and the Z score was 0.82.

Consider `O=C(c1sccc1Cl)N1CCN(CC2CC2)[C@@H]2CS(=O)(=O)C[C@@H]21`, for which the “% Inhibition” value is -26% and the Z score was 3.32.

In the case of `C[C@H](NC(=O)c1ccc(-c2[nH]nc3c2CCCc2ccccc2-3)cc1)c1ccccc1`, the “% Inhibition” value is reported as -11% and the Z score was 1.54.

As to `Cc1ccc(Oc2cc3c(cc2S(=O)(=O)N2CCC(C)CC2)C(=O)Nc2ccc(C)cc2O3)cc1`, the “% Inhibition” value is on record as -7% and the Z score is recorded as 1.35.

In the case of `Nc1cc(C(=O)N[C@H]2CCCN(C3CCCCCC3)C2)ccn1`, the “% Inhibition” value was -4% and the Z score is recorded as 0.52.

As for `CN(CCN(C)C1CC1)C(=O)c1ncsc1Br`, the “% Inhibition” value was -10% and the Z score turned out to be 1.9.

On to `Cc1nn(C[C@H](O)c2ccc(CC(C)C)cc2)c(=O)c(C#N)c1C`, for which the “% Inhibition” value amounted to 4% and the Z score is -0.78.

Turning to `CC(C)[C@@H](c1nc(N(C)C)no1)N1CCCS1(=O)=O`, the “% Inhibition” value was -17% and the Z score was 1.78.

In the case of `O=C(O)Cc1cccc(C(=O)N2CC[C@@H](Oc3ccccc3)C2)c1`, the “% Inhibition” value is given as -11% and the Z score came to 1.17.

On to `CS(=O)(=O)c1ccc2nc(NC(=O)[C@H]3CC(=O)N(CCc4ccc(F)cc4)C3)sc2c1`, for which the “% Inhibition” value is given as -20% and the Z score is recorded as 2.89.
